Data from the supplement of paper PMC4604168 (melanoma cell lines).
The other results are listed elsewhere or left out. Many values rest on one well or one pass, so single values are uncertain.

Key:
Test in all cases: cell count relative to DMSO control; melanoma cells; higher = more viable cells
Conditions in all cases: library dose: standard library concentration; 72 h
G361 = test system: G361
IPC-298 = test system: IPC-298
IST-MEL1 = test system: IST-MEL1
LB2518-MEL = test system: LB2518-MEL
LOXIMVI = test system: LOXIMVI
MEL-HO = test system: MEL-HO
MZ2-MEL = test system: MZ2-MEL
MeWo = test system: MeWo
RPMI7951 = test system: RPMI7951
RVH-421 = test system: RVH-421
SkMel28 = test system: SkMel28
SkMel2 = test system: SkMel2
SkMel30 = test system: SkMel30
SkMel5 = test system: SkMel5
UACC257 = test system: UACC257
UACC62 = test system: UACC62
WM115 = test system: WM115
WM1716 = test system: WM1716
WM3526 = test system: WM3526
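Note: cells treated in 1,536-well plates, then fixed and DAPI-stained, with nuclei counted from automated high-throughput microscope images.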

Row | Compound | cell count (G361) | cell count (IPC-298) | cell count (IST-MEL1) | cell count (LB2518-MEL) | cell count (LOXIMVI) | cell count (MEL-HO) | cell count (MZ2-MEL) | cell count (MeWo) | cell count (RPMI7951) | cell count (RVH-421) | cell count (SkMel28) | cell count (SkMel2) | cell count (SkMel30) | cell count (SkMel5) | cell count (UACC257) | cell count (UACC62) | cell count (WM115) | cell count (WM1716) | cell count (WM3526)
1 | CNC(=O)c1cc(Oc2ccc(NC(=O)Nc3ccc(Cl)c(C(F)(F)F)c3)cc2)ccn1 [sorafenib] + O=C(Nc1ccccc1)c1cc([N+](=O)[O-])ccc1Cl [GW9662] (first compound 2 µM, partner dose 10 µM) | 92.7% | 112% | 112% | 89.3% | 97.8% | 104% | 114% | 74.7% | 97.3% | 101% | 85.8% | 99.7% | 99.1% | 81.5% | 94.4% | 77% | 83.8% | 102% | 100%
2 | CS(=O)(=O)CCNCc1ccc(-c2ccc3ncnc(Nc4ccc(OCc5cccc(F)c5)c(Cl)c4)c3c2)o1 [lapatinib] + COc1cc2ncnc(Nc3ccc(Oc4ccccc4)cc3)c2cc1OC [SrcI1] (first compound 4 µM, partner dose 10 µM) | 9.19% | 71% | 85.6% | 94.3% | 67.1% | 70.3% | 47.3% | 66.9% | 7.39% | 75.9% | 41.7% | 67.9% | 82.9% | 34.7% | 74.6% | 36.1% | 65.4% | 71.8% | 61%
3 | CS(=O)(=O)CCNCc1ccc(-c2ccc3ncnc(Nc4ccc(OCc5cccc(F)c5)c(Cl)c4)c3c2)o1 [lapatinib] + COc1cc(N2CCC(N3CCN(C)CC3)CC2)ccc1Nc1ncc(Cl)c(Nc2ccccc2S(=O)(=O)C(C)C)n1 [NVP-TAE684] (first compound 4 µM, partner dose 0.4 µM) | 55.4% | 83% | 83.3% | 79.2% | 81.3% | 68.2% | 46.4% | 53.4% | 44.3% | 82% | 43.4% | 71.5% | 75.2% | 31.6% | 80.5% | 42.1% | 77.8% | 65.7% | 52.1%
4 | C=CCNC1=C2C[C@@H](C)C[C@H](OC)[C@H](O)[C@@H](C)/C=C(\C)[C@H](OC(N)=O)[C@@H](OC)/C=C\C=C(/C)C(=O)NC(=CC1=O)C2=O [Tanespimycin] + O=S(=O)(c1ccccc1)N(CC(F)(F)F)c1ccc(C(O)(C(F)(F)F)C(F)(F)F)cc1 [T0901317] (first compound 0.01 µM, partner dose 7 µM) | 56.4% | 80% | 74.2% | 87% | 83% | 83.1% | 121% | 59.7% | 27.5% | 94% | 46.1% | 82.2% | 108% | 63.2% | 77.9% | 69.5% | 29.2% | 77.9% | 66.4%
5 | CN1CCN(c2ccc3nc(-c4c(N)c5c(F)cccc5[nH]c4=O)[nH]c3c2)CC1 [Dovitinib] + CCN(CC)CCCCNc1ncc2cc(-c3cc(OC)cc(OC)c3)c(NC(=O)NC(C)(C)C)nc2n1 [PD173074] (first compound 0.5 µM, partner dose 0.5 µM) | 58.8% | 80.1% | 82.8% | 56.6% | 84.9% | 92.8% | 49.1% | 67.6% | 82.6% | 115% | 68.9% | 78.9% | 73.8% | 85.9% | 95.7% | 88.9% | 62% | 106% | 85.1%
6 | CN1CCN(c2ccc3nc(-c4c(N)c5c(F)cccc5[nH]c4=O)[nH]c3c2)CC1 [Dovitinib] + N#Cc1c(O)c2c(-c3ccc(-c4ccccc4O)cc3)csc2[nH]c1=O [A769662] (first compound 0.5 µM, partner dose 10 µM) | 57.5% | 90.5% | 70.1% | 51.7% | 88.6% | 74.9% | 63.6% | 53.5% | 64.6% | 89.9% | 69.6% | 80.9% | 103% | 70% | 88.8% | 82.2% | 60.8% | 69.3% | 75.4%
7 | CNC(=O)c1cc(Oc2ccc(NC(=O)Nc3ccc(Cl)c(C(F)(F)F)c3)cc2)ccn1 [sorafenib] + Oc1nc(-c2ccc(C(F)(F)F)cc2)nc2c1CSCC2 [XAV939] (first compound 2 µM, partner dose 10 µM) | 70% | 87.7% | 91% | 104% | 97.4% | 86.6% | 100% | 79.9% | 70.6% | 88.9% | 105% | 111% | 85.1% | 80.5% | 95.2% | 87.6% | 91.5% | 54.8% | 104%
8 | CN1CCN(c2ccc3nc(-c4c(N)c5c(F)cccc5[nH]c4=O)[nH]c3c2)CC1 [Dovitinib] + c1cc(-c2cnn3cc(-c4ccc(OCCN5CCCCC5)cc4)cnc23)ccn1 [Dorsomorphin] (first compound 0.5 µM, partner dose 2 µM) | 37.7% | 53% | 83.6% | 50.4% | 98.6% | 70.7% | 41.5% | 39.5% | 72.8% | 87.1% | 41.4% | 54.5% | 92.5% | 56.2% | 69.1% | 71.8% | 53.1% | 54.2% | 71.9%
9 | CS(=O)(=O)CCNCc1ccc(-c2ccc3ncnc(Nc4ccc(OCc5cccc(F)c5)c(Cl)c4)c3c2)o1 [lapatinib] + CCN(CC)CCCCNc1ncc2cc(-c3cc(OC)cc(OC)c3)c(NC(=O)NC(C)(C)C)nc2n1 [PD173074] (first compound 4 µM, partner dose 0.5 µM) | 59.6% | 91.8% | 80.2% | 82.2% | 79.1% | 76.8% | 69.6% | 74% | 42.7% | 90.1% | 67.1% | 67.7% | 66.4% | 53.9% | 105% | 59.5% | 81% | 87.7% | 67.3%
10 | CNC(=O)c1cc(Oc2ccc(NC(=O)Nc3ccc(Cl)c(C(F)(F)F)c3)cc2)ccn1 [sorafenib] + CCc1ccc(CCOc2ccc(CC3SC(=O)NC3=O)cc2)nc1 [pioglitazone] (first compound 2 µM, partner dose 10 µM) | 75.6% | 81.2% | 79.3% | 91.4% | 86.8% | 82.7% | 104% | 85.1% | 93.9% | 102% | 96.4% | 82.5% | 97.7% | 75.8% | 61.2% | 84.6% | 98.9% | 73.6% | 89.7%
11 | CS(=O)(=O)CCNCc1ccc(-c2ccc3ncnc(Nc4ccc(OCc5cccc(F)c5)c(Cl)c4)c3c2)o1 [lapatinib] + CCCCCCCCCCCC1=C(O)C(=O)C=C(O)C1=O [Embelin] (first compound 4 µM, partner dose 6 µM) | 40.4% | 86.3% | 60.6% | 83.3% | 87.9% | 68.1% | 62.9% | 69.1% | 58.6% | 71.4% | 51.8% | 73.8% | 81% | 58.7% | 82.7% | 66.8% | 83.8% | 67.3% | 67.7%
12 | C[C@@H](Oc1cc(-c2cnn(C3CCNCC3)c2)cnc1N)c1c(Cl)ccc(F)c1Cl [Crizotinib] + CC(C)CCN1c2nc(Nc3cc(F)c(O)c(F)c3)ncc2N(C)C(=O)C1C [BID1870] (first compound 1 µM, partner dose 1 µM) | 72.5% | 81.3% | 83.3% | 83.6% | 106% | 77.7% | 108% | 55.3% | 72% | 82.8% | 71.9% | 72.8% | 85.1% | 68.5% | 80.8% | 77.4% | 91.8% | 84.7% | 57.8%
13 | C[C@@H](Oc1cc(-c2cnn(C3CCNCC3)c2)cnc1N)c1c(Cl)ccc(F)c1Cl [Crizotinib] + COc1ccc(-c2ccc3c(N4CCOCC4)nc(N4C[C@@H](C)O[C@@H](C)C4)nc3n2)cc1CO [KU0063794] (first compound 1 µM, partner dose 0.1 µM) | 90.4% | 70.9% | 99.3% | 81.7% | 127% | 68.1% | 83.1% | 65% | 67% | 91.5% | 70.3% | 73% | 69.8% | 47.1% | 76.4% | 64.6% | 68.6% | 75.6% | 81.8%
14 | C=CCNC1=C2C[C@@H](C)C[C@H](OC)[C@H](O)[C@@H](C)/C=C(\C)[C@H](OC(N)=O)[C@@H](OC)/C=C\C=C(/C)C(=O)NC(=CC1=O)C2=O [Tanespimycin] + CCN(CC)CCCCNc1ncc2cc(-c3cc(OC)cc(OC)c3)c(NC(=O)NC(C)(C)C)nc2n1 [PD173074] (first compound 0.01 µM, partner dose 0.5 µM) | 70.7% | 86.6% | 67.6% | 76.1% | 49.8% | 91% | 96.6% | 77.7% | 15.8% | 85.6% | 68.7% | 89.9% | 115% | 83% | 116% | 59.2% | 33.1% | 96.2% | 86%
15 | C[C@@H](Oc1cc(-c2cnn(C3CCNCC3)c2)cnc1N)c1c(Cl)ccc(F)c1Cl [Crizotinib] + CCc1ccc(CCOc2ccc(CC3SC(=O)NC3=O)cc2)nc1 [pioglitazone] (first compound 1 µM, partner dose 10 µM) | 75.5% | 91.5% | 99.6% | 101% | 119% | 96% | 102% | 72.4% | 94.4% | 88.7% | 58.9% | 85.1% | 113% | 83.3% | 85.6% | 81.3% | 61.1% | 82.3% | 89.7%
16 | CS(=O)(=O)CCNCc1ccc(-c2ccc3ncnc(Nc4ccc(OCc5cccc(F)c5)c(Cl)c4)c3c2)o1 [lapatinib] + COc1ccc(-c2ccc3c(N4CCOCC4)nc(N4C[C@@H](C)O[C@@H](C)C4)nc3n2)cc1CO [KU0063794] (first compound 4 µM, partner dose 0.1 µM) | 75.6% | 66.4% | 89.4% | 93.5% | 103% | 72.9% | 65.4% | 77.7% | 75.8% | 86.9% | 71.7% | 67.9% | 110% | 50.6% | 105% | 80.1% | 94% | 87.5% | 77%
17 | CS(=O)(=O)CCNCc1ccc(-c2ccc3ncnc(Nc4ccc(OCc5cccc(F)c5)c(Cl)c4)c3c2)o1 [lapatinib] + Oc1cc(-c2nc(-c3ccccc3)[nH]c2-c2ccncc2)ccc1Cl [L779450] (first compound 4 µM, partner dose 1 µM) | 43.5% | 78.1% | 73.3% | 85.9% | 121% | 70.6% | 67.9% | 67.1% | 49.6% | 68.9% | 28.7% | 34.1% | 80.2% | 57.3% | 94.4% | 31.5% | 55.3% | 74.8% | 61.3%
